The source of these data is US20190062428A1, “COMBINATION OF ANTI-CD47 ANTIBODIES AND CELL DEATH-INDUCING AGENTS, AND USES THEREOF” (Surface Oncology, Inc., priority 2017, published 2019).

The test system of data set [1] is Jurkat cells. Description: Macrophage / CFSE-labeled Jurkat co-culture, Live/Dead staining and phagocytosis by flow cytometry. Format: cell-based, human. The note with it: macrophages:Jurkat 1:2, 2 hours; FIG. 1 and 2. From the text: Jurkat cells were utilized as the target cells due to their expression of CD47 on their surface.
Non-phagocytosed Jurkat cells (CFSE+CD14-) were isolated by flow-cytometry and analyzed for Live/Dead staining using a Live/Dead Violet kit (Life Technologies). […] Without being bound by theory, it is believed that 2.3D11-induced triggering of cell death pathways in target cells may enhance target cell uptake by macrophages.

Data set [2] relates to Jurkat cells. Description: Jurkat cell death on immobilized antibody after pan-caspase inhibitor Z-VAD-FMK pre-treatment, Annexin V/PI. The note with it: Z-VAD-FMK 100, 10 or 1 μM pre-treatment 1 hour, 24 hours, FIG. 3A. Format: cell-based, human. The procedure: Jurkat cells were utilized to determine whether the induction of cell death by an anti-CD47 antibody was caspase and/or PLCγ1 dependent.
To assay whether anti-CD47 induced cell death was caspase dependent or independent Jurkat cells were pre-treated for 1 hour at 37° C., with DMSO (control), 100 μM pan-caspase inhibitor Z-VAD-FMK, 10 μM pan-caspase inhibitor Z-VAD-FMK, or 1 μM pan-caspase inhibitor Z-VAD-FMK. […] Cell death was evaluated by Annexin V+/Propidium Iodide (PI) staining via flow cytometry.

The subject of data set [3] is wildtype Jurkat cells or PLCγ1-deficient Jurkat cells (J.Gamma1 cells). Description: Cell death of wildtype vs PLCγ1-deficient Jurkat cells (J.Gamma1) on immobilized antibody, Annexin V. Format: cell-based, human. The note with it: dose titration of immobilized antibody, overnight; FIG. 3B. The procedure: Jurkat cells were utilized to determine whether the induction of cell death by an anti-CD47 antibody was caspase and/or PLCγ1 dependent. […] To assay whether anti-CD47 induced cell death was PLCγ1 dependent or independent wildtype Jurkat cells or PLCγ1-deficient Jurkat cells (J.Gamma1 cells) were utilized. […] Cell death was assessed by Annexin V surface staining by flow cytometry and the percent of events staining positive for Annexin V is graphed as a function of antibody concentration in FIG. 3B.

In the next data set the test system is Ri-1 tumors. Nature of the data set: Ri-1 human B cell lymphoma (DLBCL) subcutaneous xenograft, tumor volume. It counts as in vivo, CB.17 SCID mice. The note with it: FIG. 4. The procedure: The Ri-1 cell line is a human B cell lymphoma line that represents the ABC-subtype of diffuse large cell B cell lymphoma (DLBCL) and harbors a BCL-2 amplification. ABT-199, also known as Venclexta™ or Venetoclax, is an oral BCL-2 inhibitor, and was used as the cell death-inducing agent.
Briefly, 1×10^7 Ri-1 cells were injected subcutaneously into the right flank of CB.17 SCID mice in a 1:1 mixture of RPMI and Matrigel. Tumors were allowed to grow until they were 200-300 mm^3.

Data set [4] addresses interaction between CD47 and SIRPα (Homo sapiens, UniProt Q08722). The note with it: cited from earlier work.
The next data set concerns tumor cells. The note with it: cited from earlier work.
A further data set has as its system human erythrocytes. The note with it: cited from earlier work.
A further data set relates to red blood cell. The note with it: cited from earlier work.

“Also recorded” adds a separate entry of the source.

B1: 2.3D11: anti-CD47 monoclonal antibody comprising a heavy chain and light chain as set forth in SEQ ID NOs: 13 and 16 (human IgG4, kappa) (antibody)
heavy: QVQLQESGPGLVKPSGTLSLTCAVSGVSIRSINWWNWVRQPPGKGLEWIGEIYHSGSTNYNPSLKSRVTISVDKSKNQFSLKLNSVTAADTAVYYCARDGGIAVTDYYYYGLDVWGQGTTVTVSSASTKGPSVFPLAPCSRSTSESTAALGCLVKDYFPEPVTVSWNSGALTSGVHTFPAVLQSSGLYSLSSVVTVPSSSLGTKTYTCNVDHKPSNTKVDKRV[left out - human IgG4 Fc]
light: EIVLTQSPATLSLSPGERATLSCRASESVSSNLAWYQQKPGQAPRLLIYGAFNRATGIPARFSGSGSGTDFTLTISSLEPEDFAVYYCQQRSDWFTFGGGTKVEIKTVAAPSVFIFPPSDEQLKSGTASVVCLLNNFYPREAKVQWKVDNALQSGNSQESVTEQDSKDSTYSLSSTLTLSKADYEKHKVYACEVTHQGLSSPVTKSFNRGEC
modifications: Synthetic 2.3D11 heavy chain; Synthetic 2.3D11 light chain
As for B1, the “death of CD47 expressing cells (dead non-phagocytosed and phagocytosed Jurkat cells)” value in the data set on Jurkat cells [1] is “induces death of CD47 expressing cells via phagocytosis and non-phagocytosis mechanisms”. Also, in the data set on Jurkat cells [2], the “caspase dependence of 2.3D11-mediated cell death (effect of pan-caspase inhibitor Z-VAD-FMK)” value is “negligible effect; also recorded: caspase independent”. For the same molecule, in data set [3], the “PLCγ1 dependence of 2.3D11-induced cell death” value was “partially dependent on PLCγ1 expression”. The single-agent anti-tumor activity entry with Ri-1 tumors (2.3D11 100 μg/mouse days 0, 3, 7, ABT-199 25 mg/kg days 0-4) is recorded as “potent single-agent anti-tumor activity”. For the same molecule, in the data set with Ri-1 tumors (single agents as above, combination: 2.3D11 100 μg/mouse day 0, then oral ABT-199 25 mg/kg days 3, 4, 5), the tumor re-growth result is “tumors re-grew”. Besides, the “inhibition of the interaction between CD47 and SIRPα” value in data set [4] is “potently inhibit”. For the same molecule, the “phagocytosis of tumor cells” value with tumor cells is listed as “enhance phagocytosis”. Moreover, the hemagglutination entry with human erythrocytes is “not induce hemagglutination”. Moreover, the “red blood cell phagocytosis” value in the data set with red blood cell is “not induce”.
